Laboratory results published in publication PMC4336329 (PLoS ONE, 2015).
About 2,200 (0.71%) of roughly 310,000 compounds showed an effect of 50% or more. Effects have a minus sign here. The list shows a part of the results. Where a SMILES comes first, the peptide text is derived from it. [ ]: non-standard residue; d: D form. ξ: configuration not given here. ξM = CSCCC(N)C(=O)O

These compounds were tested against human ether-à-go-go-related gene (hERG) potassium channel (human, UniProt Q12809) (assay: primary screen, population patch clamp on CHO cells stably expressing hERG).
Chain of human ether-à-go-go-related gene (hERG) potassium channel (Q12809 whole entry, looked up): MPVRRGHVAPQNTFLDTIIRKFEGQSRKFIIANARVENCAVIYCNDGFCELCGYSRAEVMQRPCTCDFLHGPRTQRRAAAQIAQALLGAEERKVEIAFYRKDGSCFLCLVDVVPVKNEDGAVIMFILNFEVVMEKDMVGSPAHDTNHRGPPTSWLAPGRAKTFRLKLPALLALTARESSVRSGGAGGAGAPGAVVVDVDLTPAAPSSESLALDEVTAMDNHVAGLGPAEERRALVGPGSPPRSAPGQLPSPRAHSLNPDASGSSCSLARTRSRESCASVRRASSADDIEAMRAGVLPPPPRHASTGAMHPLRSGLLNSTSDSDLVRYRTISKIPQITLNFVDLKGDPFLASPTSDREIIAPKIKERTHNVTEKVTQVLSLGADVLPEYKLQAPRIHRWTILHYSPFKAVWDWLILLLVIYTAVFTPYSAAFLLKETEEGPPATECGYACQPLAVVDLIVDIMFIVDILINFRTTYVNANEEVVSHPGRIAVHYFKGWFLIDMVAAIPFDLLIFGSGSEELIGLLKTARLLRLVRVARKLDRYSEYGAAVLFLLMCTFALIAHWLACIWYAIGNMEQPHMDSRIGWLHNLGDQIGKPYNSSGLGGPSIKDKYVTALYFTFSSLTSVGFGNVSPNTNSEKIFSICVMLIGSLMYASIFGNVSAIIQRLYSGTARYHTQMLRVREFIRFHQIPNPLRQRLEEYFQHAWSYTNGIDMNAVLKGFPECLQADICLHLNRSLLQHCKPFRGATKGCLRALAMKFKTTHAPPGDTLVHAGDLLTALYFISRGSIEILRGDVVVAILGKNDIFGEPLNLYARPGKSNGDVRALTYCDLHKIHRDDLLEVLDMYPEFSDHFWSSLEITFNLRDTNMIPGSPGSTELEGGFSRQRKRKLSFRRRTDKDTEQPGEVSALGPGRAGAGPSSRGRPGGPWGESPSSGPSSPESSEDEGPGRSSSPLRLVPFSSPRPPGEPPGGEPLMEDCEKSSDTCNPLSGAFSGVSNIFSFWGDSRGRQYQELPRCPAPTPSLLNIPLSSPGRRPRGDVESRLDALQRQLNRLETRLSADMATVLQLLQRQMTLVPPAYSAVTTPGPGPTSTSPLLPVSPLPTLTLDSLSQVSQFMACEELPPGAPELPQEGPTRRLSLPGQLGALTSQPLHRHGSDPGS

Row | SMILES | hERG current change (%, negative = inhibition) at 1uM [%]
1 | CCN1C(=S)N[C@@H](c2ccccc2)C(C(=O)OC)=C1C | 15.4
2 | COCCNC(=S)Nc1ccc(S(=O)(=O)Nc2ncccn2)cc1 | 5.43
3 | C/C(=N\NC(=O)c1c(Cl)cnn1C)c1cccc(NC(=O)c2ccc(C)cc2)c1 | 5.05
4 | NC(=O)c1ccsc1NC(=O)CCc1ccccc1 | 12.2
5 | CCn1cc(/C=C(\NC(=O)c2ccccc2F)C(=O)NCCN2CCOCC2)c2ccccc21 | 9.09
6 | COc1cc(C(=O)NCCC(=O)NCCCN2CCCCC2)cc(OC)c1OC | 3.53
7 | COc1ccc(NC(=O)Nc2cnccn2)c(OC)c1 | -7.6
8 | COc1ccc(CCn2c(C)c(C(C)=O)c(C(C)=O)c2C)cc1OC | 11.6
9 | O=C(O)C(S)C(S)C(=O)O (centres unmarked) | 14.2
10 | CC(CC(=O)Nc1ccc(Br)cc1F)S(=O)(=O)c1ccc2c(c1)NC(=O)CO2 (centres unmarked) | -4.3
11 | Cc1nn(CC(=O)Nc2ccc(N3CCOCC3)cc2)c(C)c1Br | 11.1
12 | CCCS(=O)(=O)N1CCCC(C(=O)NCCN(CC)c2ccccc2)C1 (centres unmarked) | -1.62
13 | NC1=NC(=O)C(CC(=O)Nc2ccc3c(c2)OCO3)S1 (centres unmarked) | 0.639
14 | Cc1ccc2nc(Cl)c(C3CC(c4cccs4)=NN3C(=O)CCCC(=O)O)cc2c1 (centres unmarked) | 13.4
15 | COCCN=c1scc(C)n1/N=C/C1CC2C=CC1C2 (centres unmarked) | 4.08
16 | NCCCS(=O)(=O)O.O.[Na+] | 2.82
17 | O=C(O)CC(CC(=O)NCC(O)c1ccccc1)c1ccccc1 (centres unmarked) | 3.29
18 | O=C(NC1CCCCCCC1)c1ccc(F)c(S(=O)(=O)N2CCOCC2)c1 | 8.48
19 | NNc1nc2sc3c(c2c(=O)[nH]1)CCc1ccccc1-3 | 10.3
20 | CC1CCc2nn(CC(=O)NCCC3=CCCCC3)cc2C1 (centres unmarked) | 12.7

Row | SMILES | hERG current change (%, negative = inhibition) at 1uM [%]
21 | CSc1nnc(OC(=O)N(C)C)n1-c1ccc(Cl)cc1 | 11.8
22 | CC(=O)NCc1ccc(S(=O)(=O)NC2CCN(Cc3ccccc3)CC2)cc1 | 12.3
23 | Cc1nccn1CCCNC(=O)c1nc(Cn2cc([N+](=O)[O-])cn2)no1 | 14.8
24 | Cn1cc(C(=O)N2CCC3(CC2)OCCO3)c2c3ccccc3n(C)c2c1=O | 16.2
25 | Cl.OC(COc1ccc(F)cc1)CN1CCN(c2ccccc2F)CC1 (centres unmarked) | -49.5
26 | Cc1cc(-c2nc(-c3ccncc3)no2)ccc1[N+](=O)[O-] | 5.88
27 | O=C(NC1CCC(CC2CCC(NC(=O)C(Cl)Cl)CC2)CC1)C(Cl)Cl (centres unmarked) | 15.7
28 | CC(=O)Nc1ccc(NC(=O)CSc2nc(C)nc3sc(C)c(C)c23)cc1 | 15.2
29 | O=C(CN1CCC(NC(=O)c2ccc(Br)cc2)CC1)NCc1cccs1 | 11
30 | CC(=O)c1ccc(Oc2ccc(C(C)=O)cc2)cc1 | 13.8
31 | CCCCCCCCCCCCCCCCn1cc[n+](C)c1.[Br-] | 13.3
32 | CCOC(=O)c1c(CC(C)C)csc1NC(C)=O | 3.94
33 | COC(=O)c1[nH]c2ccccc2c1NC(=O)CCN1CCSCC1 | 12.6
34 | Cc1cccc(NC(=S)/N=C(\N)Nc2nc(C)c3cc(C)ccc3n2)c1 | 10.5
35 | CN(C)CCCN(C(=O)c1ccc2c(c1)CCCC2)c1nc2ccc(F)cc2s1.Cl | -12.5
36 | COc1ccc(CN2CCN(C(C)C)C(CCO)C2)cc1Cn1cccn1 (centres unmarked) | 12
37 | CC(C)(C)OC(=O)NCCCC[C@H](NC(=O)c1[nH]cnc1C(=O)Nc1ccccc1)C(=O)OC(C)(C)C | 20.8
38 | Cc1c(CCC(=O)NCCCC(=O)O)c(=O)oc2cc3oc4c(c3cc12)CCCC4 | 16.4
39 | O=S(=O)(c1ccc2c(c1)OCCO2)N1CCC(n2nnc3cc(C(F)(F)F)ccc32)CC1 | 1.12
40 | CN(C)CCN(C(=O)c1ccc(N2C(=O)CCC2=O)cc1)c1nc2cc3c(cc2s1)OCO3.Cl | 4.9

Row | SMILES | hERG current change (%, negative = inhibition) at 1uM [%]
41 | CCn1cc(C(=O)OCC(=O)Nc2ccc(C(C)C)cc2)c(=O)c2ccc(C)nc21 | 5.91
42 | Cc1ccc(-c2nnnn2-c2ccc(C)cc2)cc1 | 8.63
43 | O=C(O)c1cccc(Nc2ncnc3ccc(Br)cc23)c1 | 11
44 | Cc1ccccc1NC(=O)Nc1cc(-c2ccccc2)nn1C | 3.01
45 | Nc1nonc1N1CCCCC1 | 13.8
46 | CCN1C(=NCCOC)N[C@@H](c2cccc(F)c2)C(C(=O)OC)=C1C | -0.149
47 | COC(=O)c1ccc(CN2CCCC(C(=O)Nc3ccc(-c4ccn[nH]4)cc3)C2)cc1 (centres unmarked) | 16
48 | CCOC(=O)CSc1nc(C)c2ccc(C)cc2n1 | 11.3
49 | Cc1nc2cc(NC(=O)NC3CC3)ccc2n1C | 14.8
50 | COC(=O)CNC(=O)C(CCSC)NC(C)=O (centres unmarked) (Ac-[ξM]-Gly-OMe) | 21.8
51 | N#Cc1cc2c(nc1SCc1cccnc1)CCCC2 | -5.64
52 | COc1ccccc1OCC(=O)N1CCN(Cc2ccc3c(c2)OCO3)CC1 | 1.76
53 | Fc1cccc(F)c1/C=N/N1CCOCC1 | 10.6
54 | CCOc1cc(/C=N/Nc2nc(-c3cccs3)c(NC(C)=O)s2)ccc1O | 8.23
55 | O=C(Cn1cc([N+](=O)[O-])ccc1=O)Nc1ccc2c(c1)OCO2 | 6.39
56 | O=C(CNS(=O)(=O)c1ccccc1)Nc1ccccc1Br | -12.9
57 | Cc1ccc(CN2CCN(/N=C/c3sccc3C)CC2)c(C)c1 | 7.02
58 | Cc1ccccc1N1CC2=C(C1=O)C(c1ccccc1)NC(=O)N2C (centres unmarked) | 10.4
59 | Cc1cc(N2CCN(C)CC2)n2nc(-c3ccc(Cl)cc3)nc2n1 | -67.2
